Test results taken from PubChem BioAssay AID540317 (National Center for Advancing Translational Sciences (NCATS), 2011).
Screen size: about 390,000 compounds; about 2,200 (0.56%) were called active. The shares of active, inactive and inconclusive entries below differ from those in the screen. Calls follow the shape of the dose curve; as a rule, active = well fitted inhibition curve with a large enough effect; inconclusive = small, poorly fitted or top-dose-only effect; inactive = no such curve, though single readings can be large or run the other way. Potencies beside an inconclusive call are fits to weak or partial responses and may not hold up.

Molecular target: Chromobox protein homolog 1 (Homo sapiens) (UniProt P83916)
Sequence of UniProt P83916 (P83916 whole entry, looked up): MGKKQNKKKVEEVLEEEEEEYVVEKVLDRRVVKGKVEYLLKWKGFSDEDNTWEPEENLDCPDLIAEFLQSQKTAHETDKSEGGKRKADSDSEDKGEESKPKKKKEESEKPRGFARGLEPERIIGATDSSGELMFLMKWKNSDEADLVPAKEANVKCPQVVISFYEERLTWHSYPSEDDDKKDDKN
Experiment: HTS for Inhibitors of HP1-beta Chromodomain Interactions with Methylated Histone Tails; also: nearly all actives have a fitted effect of over 70% in size
Settings: AlphaScreen HP1-beta / biotin-H3K9me3 peptide binding; series mostly up to 114 µM
Outline: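 Compound inhibition of the preformed complex between 50 nM HP1-beta and 50 nM biotinylated H3K9me3 peptide was read by AlphaScreen. Buffer was PBS pH 7.4 with 0.01% Tween-20. Incubations ran 30 min at room temperature, with 10 ug/mL donor/acceptor beads.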
Potency is read from the fitted curve at half-maximal effect; tags tell the direction and shape of the fitted curve.

| SMILES | Potency |
| --- | --- |
| COc1ccccc1N1CCN(CCCNC(=O)c2cnn(-c3cccc(Cl)c3)c2C2CCN(C(=O)OC(C)(C)C)CC2)CC1 | inconclusive: 70.8 µM [inhibitor, partial curve, poor fit] |
| CCC1CO/C(=C(\C(Cl)=C(Cl)Cl)[N+](=O)[O-])N1 (stereo not given) | inconclusive: 39.8 µM [inhibitor, single point] |
| COc1cc(CNCc2c[nH]c3ccccc23)cc(OC)c1 | inconclusive: 50.1 µM [inhibitor, partial curve, poor fit] |
| CCOC(=O)c1c(C)c(-c2ccccc2)n(CC(=O)Nc2cc(C)ccc2OC)c1C | inactive |
| CC1=N/C(=C\c2ccc([N+](=O)[O-])cc2)C(=O)N1c1cc(Cl)ccc1C | inconclusive: 10 µM [inhibitor, full curve] |
| Cc1ccc(OCc2ccc(-c3nc(C#N)c(NCc4cccnc4)o3)o2)cc1 | inconclusive: 20 µM [inhibitor, partial curve, poor fit] |
| Fc1ccc(Nc2ncnc3onc(-c4ccc(Cl)cc4)c23)cc1Cl | inactive |
| COc1cccc(CN2CCN(c3cccc(C(F)(F)F)c3)CC2)c1OC | inconclusive: 20 µM [inhibitor, full curve] |
| CCCC(=O)Nc1nnc(S(=O)(=O)N2CCCCCC2)s1 | inconclusive: 15.8 µM [inhibitor, full curve] |
| CN(c1ccc(C(=O)Nc2cccc([N+](=O)[O-])c2)cc1)S(C)(=O)=O | inactive |
| O=C(NCCS(=O)(=O)N1CCN(c2ccc(F)cc2)CC1)c1ccco1 | inactive |
| CCNC(=S)N/N=C(\C)c1cc2ccccc2o1 | inconclusive: 10 µM [inhibitor, partial curve, poor fit] |
| CCC(=O)N1CCc2cc(Br)cc(S(=O)(=O)N3CCN(c4ccccc4OC)CC3)c21 | inactive |
| Cc1ccnc2nc(C(=O)OCC(=O)c3c[nH]c4ccccc34)nn12 | inconclusive: 70.8 µM [inhibitor, partial curve, poor fit] |
| O=C(NCCN1CCCC1)C1COc2ccccc2O1 (stereo not given) | inconclusive: 89.1 µM [inhibitor, single point] |
| COc1ccc(-c2nn(CCC(=O)O)cc2/C=C/C(=O)O)cc1[N+](=O)[O-] | inconclusive: 31.6 µM [inhibitor, partial curve, poor fit] |
| O=S(=O)(Cc1ccccc1)N1CCN(Cc2ccc(Br)cc2)CC1 | inconclusive: 17.8 µM [inhibitor, full curve] |
| CC(=O)c1c(C)[nH]c(C(=O)Nc2ccc(S(=O)(=O)N(C)C)cc2)c1C | inconclusive: 79.4 µM [inhibitor, partial curve, poor fit] |
| Cc1ccc(CCNS(=O)(=O)c2c(C)nc3sc(C)c(C)n3c2=O)cc1 | inactive |
| CCn1c(/C=C/Nc2ccccc2)[n+](CC)c2cc(Cl)c(Cl)cc21 | inactive |
| Cc1ccc(NS(=O)(=O)c2ccc3[nH]c4c(c3c2)CCCC4)cc1N(C)C | inconclusive: 44.7 µM [inhibitor, partial curve] |
| COc1ccc(NC(=S)NCCCCCC(=O)C[N+](=O)[O-])cc1 | inconclusive: 8.91 µM [inhibitor, full curve] |
| COc1ccccc1/C=C1\N=C(C(C)(C)C)OC1=O | inconclusive: 35.5 µM [inhibitor, full curve] |

| SMILES | Potency |
| --- | --- |
| CCCSC1=N/C(=C\c2ccc3c(c2)OCO3)C(=O)S1 | inactive |
| Oc1c(C(c2ccc(Cl)cc2Cl)N2CCN(Cc3ccccc3)CC2)sc2nc(-c3ccco3)nn12 (stereo not given) | inconclusive: 39.8 µM [inhibitor, partial curve] |
| CN(C)c1ccc(-c2nc3cnccn3c2Nc2ccc3c(c2)OCCO3)cc1 | inconclusive: 35.5 µM [inhibitor, partial curve] |
| c1ccc2c(c1)nc(Nc1ccc(N3CCCCC3)cc1)c1nncn12 | inconclusive: 20 µM [inhibitor, full curve] |
| O=C(Cn1c(=O)c2cccn2c2ccc(F)cc21)Nc1cccc(F)c1 | inactive |
| S=C(NCc1ccccc1)NNc1nc2ccccc2[nH]1 | inconclusive: 28.2 µM [inhibitor, full curve] |
| O=C(O)c1ccccc1-c1nc2cc(Cl)ccc2c(=O)n1O | inactive |
| FC(F)c1nc2ccccc2[nH]1 | inactive |
| COc1ccc2c(Cl)c(C(=O)N/N=C/c3ccc4c(c3)OCO4)sc2c1 | inactive |
| CCC(=O)c1ccccc1OCCN1CCN(CC)CC1 | inconclusive: 25.1 µM [inhibitor, single point] |
| O=C(N/N=C/c1ccccn1)c1ccc(NC(=O)c2ccccc2Cl)cc1 | inactive |
| CC1CN(C(=O)N2CCC(C(=O)NCc3ccco3)CC2)c2ccccc2O1 (stereo not given) | inconclusive: 31.6 µM [inhibitor, partial curve] |
| COc1cc(C(=O)Nn2c(O)c(C3=c4ccccc4=NC3=O)sc2=S)ccc1O | inconclusive: 20 µM [inhibitor, full curve] |
| CC1CC(C)(C)N2C(=O)C3(Nc4ccccc4S3)c3cccc1c32 (stereo not given) | inactive |
| CC(=O)Nc1ccc(NC(=O)C(C)OC(=O)c2cccc(S(=O)(=O)N3CCCCCC3)c2)cc1 (stereo not given) | inactive |
| Nc1ncc(N=Nc2cc(C(=O)O)ccc2Cl)s1 | inconclusive: 17.8 µM [inhibitor, partial curve, poor fit] |
| Cc1nn(C)c(C(=O)NNC(=S)NCc2ccco2)c1Cl | inconclusive: 31.6 µM [inhibitor, partial curve] |
| Cc1ccc2c(c1)C1CN(C)CCC1N2S(=O)(=O)c1ccc(Oc2ccc([N+](=O)[O-])cc2)cc1 (stereo not given) | inconclusive: 15.8 µM [inhibitor, full curve] |
| CCN(Cc1ccccc1)C(=O)c1cn(-c2cccc(OC)c2)c(=O)c2ccccc12 | inconclusive: 35.5 µM [inhibitor, partial curve] |
| Clc1cccc(CN2CCSCC2)c1Cl | inconclusive: 50.1 µM [inhibitor, partial curve, poor fit] |
| CCOc1ccc(NC(=O)c2ccc(CNc3c(NC4CCCCC4)c(=O)c3=O)cc2)cc1 | inactive |
| COc1cccc(CNCc2ccc(SC)cc2)c1OC | inconclusive: 89.1 µM [inhibitor, single point] |
